# In PubChem BioAssay (Tox21):
# Where “and” joins values, the source holds several entries; their conditions need not be identical. Equal values may be shown once. Inconclusive results, whose numbers are uncertain, are shown with a selection of clear calls. Potencies of inconclusive entries are doubtful fits and often do not repeat. Calls of active or inactive are those of the source. The call rests on the fitted dose curve; in most records, active means well fitted curve in the direction sought with a large enough effect in the repeat runs; inconclusive means weak or mixed curves; inactive means no such curve, though single readings can be large; an effect the other way counts as inactive or inconclusive.
# Legend:
# [1] = target: Cytochrome P450 2C19 (Homo sapiens) (UniProt P33261); assay: Cytochrome P450 Family 2 Subfamily C Member 19 (CYP2C19) small molecule antagonists: luciferase reporter qHTS assay (AID 1671197); further: nearly all actives have a fitted effect of over 65% in size
# In short: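 Light output is proportional to CYP2C19 activity: proluciferin substrate is converted to luciferin, then detected by a luciferin detection reagent that also stops the 1 h, 37C NADPH-driven reaction. Ketoconazole serves as positive control.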
# [2] = target: Cytochrome P450 2C9 (Homo sapiens) (UniProt P11712); assay: Cytochrome P450 Family 2 Subfamily C Member 9 (CYP2C9) small molecule antagonists: luciferase reporter qHTS assay (AID 1671198); further: nearly all actives have a fitted effect of over 50% in size
# In short: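 Enzyme-substrate mix preincubated with compound 10 min at room temperature; reaction started with NADPH regeneration solution, 1 h 37C. Luminescent luciferin product read after 20 min detection reagent.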
# [3] = target: Cytochrome P450 1A2 (Homo sapiens) (UniProt P05177); assay: Cytochrome P450 Family 1 Subfamily A Member 2 (CYP1A2) small molecule antagonists: luciferase reporter qHTS assay (AID 1671199); further: nearly all actives have a fitted effect of over 50% in size
# In short: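 Quantitative high-throughput format using the P450-Glo CYP1A2 system. Reaction initiated by NADPH regeneration solution, 1 h at room temperature, then stopped with detection reagent; luminescence measured 20 min later.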
# [4] = target: Cytochrome P450 3A4 (Homo sapiens) (UniProt P08684); assay: Cytochrome P450 Family 3 Subfamily A Member 4 (CYP3A4) small molecule antagonists: luciferase reporter qHTS assay (AID 1671201); further: nearly all actives have a fitted effect of over 50% in size
# In short: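 P450-Glo CYP3A4 luminescent assay: compounds preincubated 10 min at room temperature with enzyme and proluciferin substrate, NADPH regeneration added, 1 h room-temperature reaction, stopped with luciferin detection reagent; luminescence read after 20 min. Ketoconazole positive control.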
# [5] = target: Voltage-gated inwardly rectifying potassium channel KCNH2 (Homo sapiens) (UniProt Q12809); assay: Human Ether-a-go-go-Related Gene (hERG) channel small molecule antagonists: fluorescence cell-based qHTS assay (AID 1671200); further: nearly all actives have a fitted effect of over 50% in size
# In short: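 hERG-U2OS cells plated overnight at 37 C, loaded with FluxOR II dye 1 h at RT in dark; after 10 min, thallium stimulus added. Fluorescence (480/540 nm) read kinetically for 2 min at 1 s intervals.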
# Potency means the concentration at half of the fitted maximal effect; tags describe the fitted curve by direction and shape.
# Sequence of UniProt P11712 (P11712 whole entry, looked up): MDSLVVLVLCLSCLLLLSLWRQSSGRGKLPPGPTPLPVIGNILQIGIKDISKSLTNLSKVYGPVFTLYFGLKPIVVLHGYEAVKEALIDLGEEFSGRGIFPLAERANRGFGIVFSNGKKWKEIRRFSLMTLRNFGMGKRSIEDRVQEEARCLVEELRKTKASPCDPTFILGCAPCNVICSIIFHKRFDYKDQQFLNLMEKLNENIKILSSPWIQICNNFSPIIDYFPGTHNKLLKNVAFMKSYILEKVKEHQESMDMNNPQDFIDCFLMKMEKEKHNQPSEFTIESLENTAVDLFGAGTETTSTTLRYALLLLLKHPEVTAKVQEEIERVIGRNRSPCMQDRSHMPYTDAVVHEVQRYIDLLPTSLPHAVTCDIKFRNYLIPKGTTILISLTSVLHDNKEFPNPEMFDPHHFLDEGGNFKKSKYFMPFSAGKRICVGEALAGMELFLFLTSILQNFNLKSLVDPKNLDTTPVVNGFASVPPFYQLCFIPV
# Sequence of UniProt P05177 (P05177 whole entry, looked up): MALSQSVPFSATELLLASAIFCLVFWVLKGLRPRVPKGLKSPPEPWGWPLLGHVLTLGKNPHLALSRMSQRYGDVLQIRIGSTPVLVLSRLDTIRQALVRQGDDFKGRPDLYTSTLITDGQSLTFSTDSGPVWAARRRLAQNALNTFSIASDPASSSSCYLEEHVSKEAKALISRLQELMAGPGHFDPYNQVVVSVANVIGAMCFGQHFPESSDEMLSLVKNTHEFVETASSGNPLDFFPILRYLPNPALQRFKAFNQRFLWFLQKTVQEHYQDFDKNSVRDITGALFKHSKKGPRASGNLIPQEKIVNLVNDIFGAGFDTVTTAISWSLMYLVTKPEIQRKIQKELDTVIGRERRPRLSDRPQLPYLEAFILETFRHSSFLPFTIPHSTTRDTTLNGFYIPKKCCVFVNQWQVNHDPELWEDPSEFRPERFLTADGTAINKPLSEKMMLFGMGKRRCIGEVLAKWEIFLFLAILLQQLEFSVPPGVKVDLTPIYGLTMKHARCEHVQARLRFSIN
# Sequence of UniProt P33261 (P33261 whole entry, looked up): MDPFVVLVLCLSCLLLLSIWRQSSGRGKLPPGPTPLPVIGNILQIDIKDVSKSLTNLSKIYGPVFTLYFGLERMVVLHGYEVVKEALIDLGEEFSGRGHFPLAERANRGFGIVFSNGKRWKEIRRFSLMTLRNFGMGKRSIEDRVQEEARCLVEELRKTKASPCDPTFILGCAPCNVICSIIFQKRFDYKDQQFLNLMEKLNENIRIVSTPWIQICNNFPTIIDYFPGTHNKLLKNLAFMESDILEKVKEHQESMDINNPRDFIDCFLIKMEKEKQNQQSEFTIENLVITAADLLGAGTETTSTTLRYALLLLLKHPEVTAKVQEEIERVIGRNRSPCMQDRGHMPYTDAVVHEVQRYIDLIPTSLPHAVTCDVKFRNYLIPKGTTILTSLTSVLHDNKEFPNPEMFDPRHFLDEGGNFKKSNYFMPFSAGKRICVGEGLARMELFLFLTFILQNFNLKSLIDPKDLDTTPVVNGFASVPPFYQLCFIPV
# Sequence of UniProt Q12809 (Q12809 whole entry, looked up): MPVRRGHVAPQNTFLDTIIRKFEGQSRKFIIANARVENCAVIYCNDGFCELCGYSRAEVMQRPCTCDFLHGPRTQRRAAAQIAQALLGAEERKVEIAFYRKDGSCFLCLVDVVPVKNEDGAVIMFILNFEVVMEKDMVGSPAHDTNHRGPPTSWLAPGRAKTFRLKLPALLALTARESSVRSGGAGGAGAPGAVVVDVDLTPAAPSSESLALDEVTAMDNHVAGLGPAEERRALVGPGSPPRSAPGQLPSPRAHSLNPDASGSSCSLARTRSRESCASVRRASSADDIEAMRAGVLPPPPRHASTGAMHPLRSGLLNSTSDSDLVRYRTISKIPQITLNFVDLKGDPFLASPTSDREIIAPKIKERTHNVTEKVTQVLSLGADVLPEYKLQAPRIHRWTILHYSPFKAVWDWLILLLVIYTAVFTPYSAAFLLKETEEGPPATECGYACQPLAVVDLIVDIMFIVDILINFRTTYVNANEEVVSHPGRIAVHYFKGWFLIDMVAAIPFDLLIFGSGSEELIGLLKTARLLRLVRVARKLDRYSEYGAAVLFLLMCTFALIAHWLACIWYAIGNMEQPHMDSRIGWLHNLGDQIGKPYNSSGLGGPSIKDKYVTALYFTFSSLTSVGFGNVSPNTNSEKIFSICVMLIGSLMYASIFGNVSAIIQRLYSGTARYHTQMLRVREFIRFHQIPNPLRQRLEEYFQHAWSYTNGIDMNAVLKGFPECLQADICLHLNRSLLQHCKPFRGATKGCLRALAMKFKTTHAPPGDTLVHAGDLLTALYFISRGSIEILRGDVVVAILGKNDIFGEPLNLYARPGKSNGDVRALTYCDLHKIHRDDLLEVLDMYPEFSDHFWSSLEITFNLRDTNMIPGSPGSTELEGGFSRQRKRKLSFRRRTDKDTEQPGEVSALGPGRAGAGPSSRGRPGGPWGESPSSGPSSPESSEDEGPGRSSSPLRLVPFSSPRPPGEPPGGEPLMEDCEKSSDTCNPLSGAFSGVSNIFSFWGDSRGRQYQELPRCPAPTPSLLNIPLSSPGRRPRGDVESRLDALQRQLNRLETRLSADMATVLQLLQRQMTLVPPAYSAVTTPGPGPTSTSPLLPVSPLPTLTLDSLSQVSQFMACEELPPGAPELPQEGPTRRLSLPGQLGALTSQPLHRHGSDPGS
# Sequence of UniProt P08684 (P08684 whole entry, looked up): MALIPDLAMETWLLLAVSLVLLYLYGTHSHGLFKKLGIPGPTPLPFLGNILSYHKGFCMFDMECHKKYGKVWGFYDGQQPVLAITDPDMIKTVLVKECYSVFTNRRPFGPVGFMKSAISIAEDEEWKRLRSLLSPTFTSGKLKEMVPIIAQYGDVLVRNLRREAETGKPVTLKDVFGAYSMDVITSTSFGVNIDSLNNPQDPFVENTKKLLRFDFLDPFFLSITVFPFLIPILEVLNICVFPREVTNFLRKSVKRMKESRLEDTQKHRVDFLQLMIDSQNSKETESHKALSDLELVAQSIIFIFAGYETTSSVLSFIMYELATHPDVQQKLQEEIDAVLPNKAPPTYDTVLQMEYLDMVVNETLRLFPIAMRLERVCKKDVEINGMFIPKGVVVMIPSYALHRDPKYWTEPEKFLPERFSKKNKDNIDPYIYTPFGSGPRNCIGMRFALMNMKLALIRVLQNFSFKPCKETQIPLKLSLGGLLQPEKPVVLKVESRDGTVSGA
compound,measurement,setting,value
COC(C)(C)CC(C)=O,Potency,[1],"inconclusive: 89.4 µM [inhibitor, single point]"
same,Potency,[2],inconclusive: 89.4 µM [inhibitor]
O=S(=O)(O)c1cc(I)c(O)c2ncccc12,Potency,[1],inactive
same,Potency,[2],"inconclusive: 19.5 µM [inhibitor, partial curve, poor fit]"
same,Potency,[3],inactive
OCc1ccccc1,Potency,[1],"active: 35.1 µM and inconclusive: 56.4 µM [inhibitor, partial curve]"
same,Potency,[2],"inconclusive: 70 µM [inhibitor, partial curve, poor fit] and inconclusive: 89.4 µM [inhibitor, single point]"
same,Potency,[3],inactive
COc1ccccc1OCC(O)COC(N)=O (stereo not drawn),Potency,[1],"inconclusive: 43.6 µM [inhibitor, single point]"
CC1CC(O)CC(C)(C)C1 (stereo not drawn),Potency,[1],inactive
same,Potency,[2],inactive
same,Potency,[3],"inconclusive: 39.9 µM [inhibitor, partial curve]"
CCc1cccc(C)c1N(C(=O)CS(=O)(=O)O)C(C)COC (stereo not drawn),Potency,[1],"inconclusive: 79.6 µM [inhibitor, single point]"
same,Potency,[2],"inconclusive: 79.6 µM [inhibitor, partial curve, poor fit]"
same,Potency,[4],"inconclusive: 44.8 µM [inhibitor, partial curve, poor fit]"
Cc1ccccc1C(=O)N1CC/C(=N\OS(=O)(=O)O)c2ccc(Cl)cc21,Potency,[1],"inconclusive: 4.36 µM [inhibitor, full curve, poor fit]"
same,Potency,[2],active: 4.36 µM
Cc1cc(C)c(N)c(Cl)c1,Potency,[1],"inconclusive: 79.6 µM [inhibitor, single point]"
same,Potency,[2],"inconclusive: 20 µM [inhibitor, partial curve, poor fit]"
same,Potency,[3],active: 2.83 µM
CCCCCCc1ccc(-c2ccc(C#N)cc2)cc1,Potency,[1],active: 44 µM
same,Potency,[2],"inconclusive: 55.4 µM [inhibitor, partial curve]"
same,Potency,[5],"inconclusive: 13.6 µM [inhibitor, full curve]"
CC1(C)[C@@H]2CC[C@@]1(C)C(=O)C2,Potency,[1],"inconclusive: 89.4 µM [inhibitor, single point]"
same,Potency,[2],"inconclusive: 56.4 µM [inhibitor, partial curve, poor fit]"
same,Potency,[3],inactive
O=C(Oc1ccccc1C(=O)O)c1ccccc1O,Potency,[1],"inconclusive: 43.6 µM [inhibitor, partial curve, poor fit]"
same,Potency,[2],"inconclusive: 30.9 µM [inhibitor, partial curve, poor fit]"
Nc1c(I)cc(I)c(C(=O)N(CCC(=O)O)c2ccccc2)c1I,Potency,[1],"inconclusive: 43.6 µM [inhibitor, single point]"
same,Potency,[2],"inconclusive: 9.77 µM [inhibitor, full curve]"
same,Potency,[3],inactive
CC(C)=CCCC(C)C=O (stereo not drawn),Potency,[1],"inconclusive: 44.8 µM [inhibitor, partial curve, poor fit]"
same,Potency,[2],"inconclusive: 79.6 µM [inhibitor, single point]"
same,Potency,[3],inactive
CC(Oc1c(Cl)cccc1Cl)C1=NCCN1 (stereo not drawn),Potency,[1],"inconclusive: 9.77 µM [inhibitor, partial curve, poor fit]"
same,Potency,[2],"inconclusive: 15.5 µM [inhibitor, partial curve]"
CC(=O)c1ccc(C)cc1,Potency,[1],inactive
same,Potency,[2],inactive
CC[N+](C)(CC)CCOC(=O)C(O)(c1ccccc1)C1CCCCC1 (stereo not drawn),Potency,[1],"inconclusive: 43.6 µM [inhibitor, single point]"
Cc1ccc(C#N)cc1,Potency,[1],active: 34.4 µM
same,Potency,[2],"inconclusive: 54.5 µM [inhibitor, partial curve, poor fit]"
CC1(C)[C@H]2CC[C@]1(C)C(=O)C2,Potency,[1],inactive
same,Potency,[2],inactive
CC(=O)/C=C/C1C(C)=CCC(C)C1(C)C (stereo not drawn),Potency,[1],active: 10 µM
same,Potency,[2],"inconclusive: 71 µM [inhibitor, partial curve]"
same,Potency,[3],"inconclusive: 39.9 µM [inhibitor, partial curve]"
CCCCCc1cccc(=O)o1,Potency,[1],"inconclusive: 89.4 µM [inhibitor, single point]"
same,Potency,[2],"inconclusive: 35.6 µM [inhibitor, full curve]"
O=C(CO)[C@@H](O)[C@H](O)[C@H](O)CO,Potency,[1],inactive
same,Potency,[3],"inconclusive: 35.8 µM [inhibitor, partial curve]"
CCCCCCCCCCCC(=O)Cl,Potency,[1],"inconclusive: 79.6 µM [inhibitor, single point]"
same,Potency,[2],inconclusive: 89.4 µM [inhibitor]
same,Potency,[3],inactive
